According to PubChem BioAssay AID2147 (National Center for Advancing Translational Sciences (NCATS), 2009):
In all, about 230,000 compounds went through this assay and about 3,600 (1.6%) were called active. This list was built around the results that the source calls inconclusive (neither active nor inactive); the mix of calls is not that of the screen. The call rests on the fitted dose curve; in most records, active means well fitted inhibition curve with a large enough effect (not every such curve was filed as active); inconclusive means small, poorly fitted or top-dose-only effect, or another doubt; inactive means no such curve, though single readings can be large or run the other way. Potencies beside an inconclusive call are fits to weak or partial responses and may not hold up.

target: Lysine-specific demethylase 4E (Homo sapiens) (UniProt B2RXH2); assay: qHTS Assay for Inhibitors of Human Jumonji Domain Containing 2E (JMJD2E); conditions: JMJD2E catalytic domain, FDH-coupled NADH fluorescence (FDH is formaldehyde dehydrogenase); series mostly up to 57.1 µM
Further: nearly all actives have a fitted effect of over 50% in size.
Potency means the concentration at half of the fitted maximal effect; tags describe the fitted curve by direction and shape.

Sequence of UniProt B2RXH2 (B2RXH2 whole entry, looked up, the tested form may be a part): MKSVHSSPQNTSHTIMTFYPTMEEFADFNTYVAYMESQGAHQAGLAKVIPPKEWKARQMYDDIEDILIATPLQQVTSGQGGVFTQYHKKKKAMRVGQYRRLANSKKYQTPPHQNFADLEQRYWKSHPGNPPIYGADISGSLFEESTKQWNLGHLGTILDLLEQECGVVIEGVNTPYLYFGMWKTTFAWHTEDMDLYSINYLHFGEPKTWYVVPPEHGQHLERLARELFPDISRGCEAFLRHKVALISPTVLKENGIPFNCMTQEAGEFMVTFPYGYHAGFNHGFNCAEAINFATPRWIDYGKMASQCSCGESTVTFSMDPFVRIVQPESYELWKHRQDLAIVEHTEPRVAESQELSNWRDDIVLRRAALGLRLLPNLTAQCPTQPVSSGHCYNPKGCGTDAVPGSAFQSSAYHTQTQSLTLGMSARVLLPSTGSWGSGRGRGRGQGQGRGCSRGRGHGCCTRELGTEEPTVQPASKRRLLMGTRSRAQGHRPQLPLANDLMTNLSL

| SMILES | Potency |
| --- | --- |
| CCOc1ccccc1NC(=O)c1cc(C(=O)Nc2ccccc2OCC)cc(N2C(=O)CCC2=O)c1 | inconclusive: 39.8 µM [inhibitor, single point] |
| O=c1[nH]c2ccccc2n1Cc1ccccc1 | inactive |
| Cc1cc2nc(C)c3c(n2n1)CCC3 | inconclusive: 25.1 µM [inhibitor, single point] |
| O=C(O)CCCC(=O)Nc1ccn(-c2ccccc2)n1 | inconclusive: 39.8 µM [inhibitor, single point] |
| COc1ccc(C(C[N+](=O)[O-])c2c(-c3ccccc3)cc3ccccn23)c(OC)c1 (stereo not drawn) | inactive |
| O=C(Nc1ccc(-c2csc(-c3ccccc3)n2)cc1)c1ccccc1 | inactive |
| COc1ccc(S(=O)(=O)NCCSCc2ccco2)cc1Cl | inactive |
| CCCOc1ccccc1/C=C(\C#N)C(=O)Nc1cccnc1 | inconclusive: 39.8 µM [inhibitor, single point] |
| N[C@H](Cn1ccc(=O)n(Cc2ccccc2C(=O)O)c1=O)C(=O)O | inactive |
| CCOP(=O)(C1=C(O)C(=O)C(C(C)(C)C)=CC1=O)c1ccccc1 (stereo not drawn) | inactive |
| COC(=O)c1ccc(Sc2ccc(C)cc2)c(N)c1 | inconclusive: 28.2 µM [inhibitor, partial curve] |
| c1ccc2c(SCc3cn4cccnc4n3)ncnc2c1 | inconclusive: 28.2 µM [inhibitor, partial curve] |
| Cc1ccc(-c2nnn(CC(=O)Nc3cccc4cccnc34)n2)o1 | inconclusive: 22.4 µM [inhibitor, single point] |
| COc1ccc(Br)cc1/C=C/C(=O)Nc1ccc2ccccc2c1 | inconclusive: 25.1 µM [inhibitor, single point] |
| CCOC(=O)CSc1ncnc2c1sc1nc(N3CCOCC3)c3c(c12)CCCC3 | inconclusive: 17.8 µM [inhibitor, partial curve] |
| CNC(=O)c1c(C)[nH]c(=S)c(C#N)c1-c1ccco1 | active: 31.6 µM |
| O=C(CCCCCN1C(=O)c2cccc3cccc(c23)C1=O)NCc1ccco1 | inconclusive: 7.08 µM [inhibitor, partial curve] |
| CN1CCc2c(sc3c2c(=O)n(-c2ccccc2)c2nnc(SCc4ccccc4)n32)C1 | inconclusive: 35.5 µM [inhibitor, single point] |
| O=C(CNc1ccc2ccccc2c1)N/N=C/C=C/c1cccc([N+](=O)[O-])c1 | inactive |
| COc1ccc(Oc2coc3cc(OC(=O)/C=C/c4ccccc4)ccc3c2=O)cc1 | inconclusive: 31.6 µM [inhibitor, single point] |
| COc1cccc(CNCc2ccccn2)c1OC | inconclusive: 39.8 µM [inhibitor, single point] |
| O=C1NC2=C(C(=O)c3ccccc32)C(c2ccccc2)N1 (stereo not drawn) | inactive |
| COc1cc(C2C(C#N)=C(N)Oc3c2ccc2ccccc32)ccc1OCC(=O)Nc1ccc(C)cc1 (stereo not drawn) | inconclusive: 28.2 µM [inhibitor, partial curve] |
| Cc1c(-c2cccc(NC(=O)c3cccs3)c2)nc2ncccn12 | inconclusive: 31.6 µM [inhibitor, partial curve] |
| C=CC[n+]1c(-c2ccc(Cl)cc2Cl)csc1Nc1ccc(NC(C)=O)cc1 | inactive |

| SMILES | Potency |
| --- | --- |
| COc1cc(/C=C/C(=O)O)cc(S(=O)(=O)NC2CCCC2)c1OC | inconclusive: 28.2 µM [inhibitor, partial curve] |
| Nc1c(C(=O)C2CC2)sc2nc(-c3cccs3)cc(C(F)(F)F)c12 | inconclusive: 8.91 µM [inhibitor, partial curve] |
| Cc1ccc(-c2nc(SCC(=O)NCCN3C(=O)CSC3=O)[nH]c2-c2ccc(C)cc2)cc1 | inconclusive: 39.8 µM [inhibitor, single point] |
| N#CC1(Cc2ccc(Cl)cc2)c2ccccc2C=CN1C(=O)c1ccccc1 (stereo not drawn) | inactive |
| O=C(CN1C(=O)/C(=C\c2cccc(Cl)c2)Oc2ccccc21)N1CCN(c2ccccn2)CC1 | inconclusive: 0.251 µM [inhibitor, single point] |
| CC1(C)Cc2c(sc3nc(SCC(=O)NCc4ccco4)n(-c4ccccc4)c(=O)c23)CS1 | inconclusive: 39.8 µM [inhibitor, single point] |
| O=C(Nc1ccccc1-c1ccccc1)C(=O)Nc1ccccc1-c1ccccc1 | inactive |
| O=C(NCCc1ccccc1)c1ccc(-c2ccccc2C(F)(F)F)o1 | inconclusive: 39.8 µM [inhibitor, single point] |
| NS(=O)(=O)c1ccc(NC(=O)COC(=O)c2cc3ccccc3oc2=O)cc1 | inconclusive: 22.4 µM [inhibitor, partial curve] |
| Cc1ccn2c(C=O)c(-c3ccc(F)cc3)c(C=O)c2c1 | inactive |
| CCOC(=O)C(C)Oc1cccc2c(=O)n(CC(=O)N3CCc4ccccc43)ccc12 (stereo not drawn) | inconclusive: 39.8 µM [inhibitor, single point] |
| Cc1ccnc(NS(=O)(=O)c2ccc(NC(=O)Cc3cccs3)cc2)n1 | inactive |
| CC(=O)Nc1ccc(N2CCC(C)CC2)c([N+](=O)[O-])c1 | inactive |
| N#CC1=C(N)C(C#N)(C#N)[C@H](c2c(F)cccc2F)[C@H]2CC3(CC=C12)OCCO3 | inconclusive: 22.4 µM [inhibitor, partial curve] |
| CC1=C(C(=O)OC(C)C)C(c2cccnc2)C2=C(CCCC2=O)N1 (stereo not drawn) | inconclusive: 28.2 µM [inhibitor, partial curve] |
| COc1ccc(-c2nc(SC)n(C)c(=O)c2C#N)cc1OC | inconclusive: 28.2 µM [inhibitor, single point] |
| COc1ccc2oc(=O)c(C(=O)OCC(=O)c3ccc([N+](=O)[O-])cc3)cc2c1 | inconclusive: 39.8 µM [inhibitor, single point] |
| CC1(C)Oc2ccc3ccc(=O)oc3c2C(N2CCCCC2)C1O (stereo not drawn) | inconclusive: 28.2 µM [inhibitor, partial curve] |
| Fc1ccc(Oc2cc(N3CCOCC3)nc(-c3ccccc3)n2)c(F)c1 | inconclusive: 39.8 µM [inhibitor, single point] |
| Cc1cc(=O)oc2cc(OC(C)C)ccc12 | inconclusive: 25.1 µM [inhibitor, partial curve] |
| COc1ccc(OC)c(CNC(=O)C2CCN(S(=O)(=O)N3CCCC3)CC2)c1 | inactive |
| Nc1ccc2c(c1)C/C(=C/c1ccco1)C2=O | inconclusive: 25.1 µM [inhibitor, partial curve] |
| Clc1ccc2[nH]c3c(NCC4CCCO4)ncnc3c2c1 (stereo not drawn) | inconclusive: 28.2 µM [inhibitor, partial curve] |
| CC(C)c1ccc(C2NC(=S)NC3=C2C(=O)CC(C)(C)C3)cc1 (stereo not drawn) | inactive |
| COc1ccc(OC)c(NC(=O)C2CCCCC2C(=O)O)c1 (stereo not drawn) | inactive |

| SMILES | Potency |
| --- | --- |
| Cc1ccc(CN2CCN(/N=C/C(Br)=C\c3ccccc3)CC2)cc1 | inactive |
| O=C(c1ccc(Cl)cc1[N+](=O)[O-])N1CCc2ccccc2C1 | inactive |
| C=CCn1c(N)c(C(=O)OC(C)CC)c2nc3ccccc3nc21 (stereo not drawn) | inconclusive: 28.2 µM [inhibitor, partial curve] |
| O=C(N/N=C\c1ccc(Sc2ccccn2)o1)c1cccc(Br)c1 | inconclusive: 39.8 µM [inhibitor, single point] |
| CCSc1nc2c(sc3nc(C)cc(C)c32)c(=O)[nH]1 | inconclusive: 5.62 µM [inhibitor, full curve] |
| O=C(COc1ccccc1Cl)NC(=S)Nc1cccc(NC(=O)c2ccccc2Cl)c1 | inactive |
| COc1ccc(-c2nc3ccncc3[nH]2)cc1OC | inconclusive: 25.1 µM [inhibitor, partial curve] |
| Cn1sc(=O)c2cc(S(=O)(=O)NC3CC3)ccc21 | inconclusive: 25.1 µM [inhibitor, single point] |
| Cc1ccc(-n2c(SCC(=O)Nc3cccc(S(N)(=O)=O)c3)nc3ccccc32)cc1 | inactive |
| COc1cc(OC)cc(C(=O)NC(=S)Nc2ccc3c4c(cccc24)CC3)c1 | inactive |
| O=c1c(=O)n2c(nn1Cc1ccc(F)cc1)sc1ccccc12 | inconclusive: 35.5 µM [inhibitor, partial curve] |
| O=C(CN1C(=O)c2cccc3cccc1c23)Nc1ccc2c(c1)OCO2 | inconclusive: 39.8 µM [inhibitor, single point] |
| O=S(=O)(NCCSc1ccc(Cl)cc1)c1ccc(F)cc1 | inactive |
| CC(C)[C@H](NC(N)=O)C(=O)NNC(=O)COc1cccc(C(F)(F)F)c1 | inconclusive: 39.8 µM [inhibitor, single point] |
| COc1ccc(OC)c(/C(C)=N/Nc2ccc(C(=O)O)cc2)c1 | inconclusive: 35.5 µM [inhibitor, single point] |
| O=C(O)c1n[nH]nc1-c1ccccc1 | inconclusive: 35.5 µM [inhibitor, single point] |
| Cc1ccc(C(=O)Oc2ccccc2N2C(=O)C3CCC(C)CC3C2=O)cc1 (stereo not drawn) | inactive |
| CC(C)OC(=O)CSc1nnc(-c2cnccn2)n1-c1ccccc1 | inactive |
| COc1cccc(-c2cc(=O)c3cc(NC(C)=O)ccc3[nH]2)c1 | inconclusive: 28.2 µM [inhibitor, partial curve] |
| CC1CCN(C(=O)CSc2nc3c(cnn3-c3ccccc3)c(=O)[nH]2)CC1 | inactive |
| CCOC(=O)c1oc2cccc(OC(C)=O)c2c1C | inconclusive: 35.5 µM [inhibitor, single point] |
| Cc1cc(C)c2c(CC(=O)NCCc3ccccc3)coc2c1 | inactive |
| O=C(COc1ccc(/C=N/NS(=O)(=O)c2ccccc2)cc1)N1CCOCC1 | inactive |
